We go through 68 compounds from the supplement of paper PMC7580552.

Structures are written as SMILES. Counter-ions that a name gives are not always drawn. This is one part of the list. Repeats are few or missing, and single values can be far off.
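Also: stationary (unshaken) cultures in 96-well plates, started at OD600 0.05 from mid-exponential cells, with compounds supplied from DMSO stocks.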

The test system of the assay is Escherichia coli W3110. The experiment in a line: planktonic growth (OD600) relative to untreated control; higher = more growth. The conditions noted are these: 10 µM; 20-24 h; 30 °C; TB.
`C[N+]1(CCCCC[N+]2(C)CCCC2)CCCC1` [Pentolinium bitartrate]: the planktonic growth turned out to be 92%. As for `COc1ccc(CCN(C)CCCC(C#N)(c2ccc(OC)c(OC)c2)C(C)C)cc1OC` (stereo not drawn) [Verapamil hydrochloride], the planktonic growth is 91%.

`Cc1onc(-c2ccccc2)c1-c1ccc(S(N)(=O)=O)cc1` [Valdecoxib]: the planktonic growth was found to be 94%. `CCCc1cc(=O)[nH]c(=S)[nH]1` [Propylthiouracil] had a planktonic growth of 88%.

`C[C@]12CCC(=O)C=C1CC[C@@H]1[C@@H]2[C@@H](O)C[C@@]2(C)[C@H]1CC[C@]2(O)C(=O)CO` [Hydrocortisone base]: the planktonic growth turned out to be 108%.

`CCCCCCC[N+](CC)(CC)CCCCc1ccc(Cl)cc1` [Clofilium tosylate] displayed a planktonic growth of 104%. In turn, `CNCCCC1c2ccccc2C=Cc2ccccc21` [Protriptyline hydrochloride] returned a planktonic growth of 102%. In the case of `Oc1ncnc2[nH]ncc12` [Allopurinol] it was 92%. Regarding `COc1cccc2c1C(=O)c1c(O)c3c(c(O)c1C2=O)C[C@@](O)(C(=O)CO)C[C@@H]3O[C@H]1C[C@H](N)[C@H](O)[C@H](C)O1` [Doxorubicin hydrochloride], the planktonic growth turned out to be 99%.

Regarding `CCC(=O)O[C@@H](O[P@](=O)(CCCCc1ccccc1)CC(=O)N1C[C@H](C2CCCCC2)C[C@H]1C(=O)O)C(C)C` [Fosinopril], the planktonic growth is 97%. Regarding `CC1(C)S[C@@H]2[C@H](NC(=O)[C@H](N)c3ccc(O)cc3)C(=O)N2[C@H]1C(=O)O` [Amoxicillin], the planktonic growth was 74%.

As for `OCCOCCN1CCN(C2=Nc3ccccc3Sc3ccccc32)CC1` [Quetiapine hemifumarate], the planktonic growth was 82%.

The compound `Nc1nc(Cl)nc2c1ncn2[C@H]1C[C@H](O)[C@@H](CO)O1` [Cladribine] registered a planktonic growth of 104%. On to `CN[C@@H]1[C@H](O[C@H]2[C@H](O[C@H]3[C@H](O)[C@@H](O)[C@H](N=C(N)N)[C@@H](O)[C@@H]3N=C(N)N)O[C@@H](C)[C@]2(O)C=O)O[C@@H](CO)[C@H](O)[C@H]1O` [Streptomycin sulfate], for which the planktonic growth amounted to 44%. The compound `Fc1ccc(C(c2ccc(F)cc2)N2CCN(C/C=C/c3ccccc3)CC2)cc1` [Flunarizine dihydrochloride] had a planktonic growth of 106%. `N=C(N)c1ccc(OCCCCCOc2ccc(C(=N)N)cc2)cc1` [Pentamidine isethionate]: the planktonic growth is 100%.

`Cn1c(NCCN(CCO)CCCc2ccc([N+](=O)[O-])cc2)cc(=O)n(C)c1=O` [Nifekalant]: the planktonic growth was determined as 92%. In the case of `CCCCC(=O)O[C@H]1CC[C@H]2[C@@H]3CCc4cc(O)ccc4[C@H]3CC[C@]12C` [Estradiol Valerate] it was 103%.

Turning to `CC(C(=O)O)c1cccc(C(=O)c2ccccc2)c1` (stereo not drawn) [Ketoprofen], the planktonic growth was found to be 96%. In the case of `CCCC1O[C@@H]2C[C@H]3[C@@H]4CCC5=CC(=O)C=C[C@]5(C)[C@H]4[C@@H](O)C[C@]3(C)[C@]2(C(=O)CO)O1` (stereo partly drawn) [Budesonide] it was 92%; in that of `COc1ccc(C(=O)CC(=O)c2ccc(C(C)(C)C)cc2)cc1` [Avobenzone], 101%; in that of `COc1ncnc(NS(=O)(=O)c2ccc(N)cc2)c1OC` [Sulfadoxine], 66%. For `CC(=O)OCC(=O)[C@@]1(O)[C@H](C)C[C@H]2[C@@H]3CCC4=CC(=O)C=C[C@]4(C)[C@@]3(F)[C@@H](O)C[C@@]21C` [Dexamethasone acetate], the planktonic growth was determined as 110%.

As for `COc1c(N2C[C@@H]3CCCN[C@@H]3C2)c(F)cc2c(=O)c(C(=O)O)cn(C3CC3)c12` [Moxifloxacin], the planktonic growth was 27%. In the case of `COc1ccc(C(=O)c2ccccc2)c(O)c1` [Oxybenzone] it was 102%; in that of `CCCCCN(CCCCC)C(=O)C(CCC(=O)O)NC(=O)c1ccc(Cl)c(Cl)c1` (stereo not drawn) [Lorglumide sodium salt], 95%; in that of `CC(C)(C)NC(=O)[C@@H]1C[C@@H]2CCCC[C@@H]2CN1C[C@@H](O)[C@H](Cc1ccccc1)NC(=O)[C@H](CC(N)=O)NC(=O)c1ccc2ccccc2n1` [Saquinavir mesylate], 97%. Take `Nc1nc2c(ncn2COCCO)c(=O)[nH]1` [Acyclovir]: the planktonic growth was determined as 109%.

`CCCCN(CCCC)CCC(O)c1cc2c(Cl)cc(Cl)cc2c2cc(C(F)(F)F)ccc12` (stereo not drawn) [Halofantrine hydrochloride] registered a planktonic growth of 107%. `C#C[C@]1(O)CC[C@H]2[C@@H]3CCc4cc(O)ccc4[C@H]3CC[C@@]21C` [Ethinylestradiol]: the planktonic growth came out at 104%. The same measure for `CCOc1cc(CC(=O)N[C@@H](CC(C)C)c2ccccc2N2CCCCC2)ccc1C(=O)O` [Repaglinide]: 104%; for `CCOC(=O)C1=C(C)NC(C)=C(C(=O)OCC)C1c1ccccc1/C=C/C(=O)OC(C)(C)C` [Lacidipine]: 92%; for `C/C(=C(\CCOP(=O)(O)O)SC(=O)c1ccccc1)N(C=O)Cc1cnc(C)nc1N` [Benfotiamine]: 94%. Compound `CCN(CC)C(=S)SSC(=S)N(CC)CC` [Disulfiram] displayed a planktonic growth of 91%. Compound `Nc1c2c(nc3ccccc13)CCCC2` [Tacrine hydrochloride] displayed a planktonic growth of 109%.

`COC(=O)C1=C(C)NC(C)=C(C(=O)OC2CCCN(Cc3ccccc3)C2)C1c1cccc([N+](=O)[O-])c1` (stereo not drawn) [Benidipine hydrochloride] returned a planktonic growth of 110%. In the case of `CCNC(=O)CCC/C=C\C[C@@H]1[C@@H](/C=C/[C@@H](O)CCc2ccccc2)[C@H](O)C[C@@H]1O` [Bimatoprost] it was 97%; in that of `C[C@]12C[C@H](O)[C@H]3[C@@H](CCC4=CC(=O)CC[C@@]43C)[C@@H]1CC[C@@H]2C(=O)CO` [Corticosterone], 101%. For the compound `CC[C@H]1OC(=O)C[C@@H](O)[C@H](C)[C@@H](O[C@@H]2O[C@H](C)[C@@H](O[C@H]3C[C@@](C)(O)[C@@H](O)[C@H](C)O3)[C@H](N(C)C)[C@H]2O)[C@@H](CC=O)C[C@@H](C)C(=O)/C=C/C(C)=C/[C@@H]1CO[C@@H]1O[C@H](C)[C@@H](O)[C@@H](OC)[C@H]1OC` [Tylosin], the planktonic growth came out at 95%.

As for `O=C(CCCCCCC(=O)Nc1ccccc1)NO` [Vorinostat], the planktonic growth is 95%. Compound `CC1(C)O[C@@H]2C[C@H]3[C@@H]4CCC5=CC(=O)C=C[C@]5(C)[C@H]4[C@@H](O)C[C@]3(C)[C@]2(C(=O)CO)O1` [Desonide] registered a planktonic growth of 103%.

`CCOC(=O)n1ccn(C)c1=S` [Carbimazole] came in with a planktonic growth of 98%. The same measure for `O=C1CN(/N=C/c2ccc(-c3ccc([N+](=O)[O-])cc3)o2)C(=O)N1` [Dantrolene sodium salt]: 100%; for `Cc1cc(NS(=O)(=O)c2ccc(N)cc2)no1` [Sulfamethoxazole]: 59%; for `CN[C@@H]1[C@@H](O)[C@@H](O[C@@H]2[C@@H](O)[C@H](O[C@H]3OC(CN)=CC[C@H]3N)[C@@H](N)C[C@H]2N)OC[C@]1(C)O` [Sisomicin sulfate]: 72%. Consider `CC1(C)S[C@@H]2[C@H](NC(=O)[C@H](C(=O)O)c3ccsc3)C(=O)N2[C@H]1C(=O)O` [Ticarcillin sodium], for which the planktonic growth was 83%.

`Cc1ccccc1OCC(O)CO` (stereo not drawn) [Mephenesin] had a planktonic growth of 95%. `O=C1CN(/N=C/c2ccc([N+](=O)[O-])o2)C(=O)N1` [Nitrofurantoin] came in with a planktonic growth of 88%. On to `CCN(CC)CCOC(=O)C(Cc1cccc2ccccc12)CC1CCCO1` (stereo not drawn) [Nafronyl oxalate], for which the planktonic growth stood at 90%.

As to `C[C@H](N)[C@H](O)c1cccc(O)c1` [Metaraminol bitartrate], the planktonic growth is 94%. In the case of `CC(C)n1c(/C=C/C(O)CC(O)CC(=O)O)c(-c2ccc(F)cc2)c2ccccc21` (stereo not drawn) [Fluvastatin sodium salt] it was 96%; in that of `CC(=O)Oc1ccccc1C(=O)Oc1ccccc1C(=O)O` [Acetylsalicylsalicylic acid], 91%. In the case of `CCCCNc1cc(C(=O)O)cc(S(N)(=O)=O)c1Oc1ccccc1` [Bumetanide] it was 91%.

In turn, `CNC(=O)c1c(I)c(C(=O)NCC(=O)Nc2c(I)c(C(=O)O)c(I)c(C(=O)NCCO)c2I)c(I)c(N(C)C(C)=O)c1I` [Ioxaglic acid] showed a planktonic growth of 97%. `Nc1ccc(S(=O)(=O)Nc2cnc3ccccc3n2)cc1` [Sulfaquinoxaline sodium salt] gave a planktonic growth of 65%. For the compound `CNC[C@H](O)[C@@H](O)[C@H](O)[C@H](O)CO` [Meglumine], the planktonic growth came out at 105%. `NC(=O)OCC(COC(N)=O)c1ccccc1` [Felbamate] registered a planktonic growth of 91%. `C[C@H]1NC(=O)NC1=O` [Methylhydantoin-5-(D)]: the planktonic growth came out at 96%. `Cc1ccnc(NS(=O)(=O)c2ccc(N)cc2)n1` [Sulfamerazine]: the planktonic growth is 66%. `N=C(N)NCc1cccc(I)c1` [Iobenguane sulfate] yielded a planktonic growth of 92%. `CC(=O)O[C@H]1C[C@@]2(C)[C@@H](C[C@@H](O)[C@H]3[C@@]4(C)CC[C@@H](O)[C@@H](C)[C@@H]4CC[C@@]32C)/C1=C(\CCC=C(C)C)C(=O)O` [Fusidic acid sodium salt] showed a planktonic growth of 89%. Consider `CC(=O)N[C@@H](CS)C(=O)O` [Acetylcysteine], for which the planktonic growth is 93%. `CN(C)CCn1nnnc1SCC1=C(C(=O)O)N2C(=O)[C@@H](NC(=O)Cc3csc(N)n3)[C@H]2SC1` [Cefotiam hydrochloride] registered a planktonic growth of 17%. Consider `CC[C@H](C)C(=O)O[C@H]1C[C@@H](C)C=C2C=C[C@H](C)[C@H](CC[C@@H]3C[C@@H](O)CC(=O)O3)[C@H]21` [Lovastatin], for which the planktonic growth amounted to 99%.

In turn, `Cc1c(C)c2c(c(C)c1O)CCC(C)(C(=O)O)O2` (stereo not drawn) [Trolox] had a planktonic growth of 107%. In the case of `CCN(CC)CCOC(=O)c1ccc(N)cc1` [Procaine hydrochloride], the planktonic growth stood at 115%. As to `CCN(CC)C(=O)/C(C#N)=C/c1cc(O)c(O)c([N+](=O)[O-])c1` [Entacapone], the planktonic growth was determined as 111%. As for `C[C@]12C=CC(=O)C=C1CC[C@H]1[C@@H]3C[C@@H](O)[C@](O)(C(=O)CO)[C@@]3(C)C[C@H](O)[C@@]12F` [Triamcinolone], the planktonic growth turned out to be 97%.
